Experimental data as given in the RNAGym collection of RNA variant scans (doi:10.7554/elife.90254).
Read counts are not given, so values of variants with three or more changes are uncertain.

B1: LINE1-full (parent)
chain: UACGUAGGUGGUUUUCCCCUGAUAGUGCUAAGGGGGCCUGGAAGUUUGGACUGGGCAGAGCUCAACACAGCGUGGCAAAGUGGCUGUGGCUAGACUGCCUCUCUGGAUUCCUCGUCACUCAGCAGGGCAUCUCUGAGAGAAAUGCC

Variants of: B1
Test: self-cleavage, relative activity (ratio to wild type); higher = more cleavage; in vitro, sequencing; the parent is a self-cleaving ribozyme

Variant	self-cleavage
U85G A92U U132A	0.17
U85C U134A A140U	0.12
U87A U119C U134A	0.01
G82A A94G C145U	0.55
U81G U96C U108C A140G	0.17
U87A U102C U134C	0.12
U87C C101A A124G A142G	0.15
U87G A129G U132C	0
G86A U108A A142G	0.04
U85C U104C A117U	0.21
A79U U85A U96G U115A A136G U143C	0.09
U87C U100C U119C A141G	0
U85A U91A U130C	0.09
U85C U109A A142G	0.09
U85A U96C A121G	0
C84U U100C A121U G126A A140G	0.21
U81A G97A A140U	0.21
U87C U104C A124U	1.97
U81C A124G G125A A142G	0.47
U85C U112C A140C	0.08
G80A U100C A140G	2.99
U85C U115A G127A	0.1
U85C G88A A92G A141G	0.08
U85A A107U A136G	0.09

Variant	self-cleavage
U87C A121U A138G	0.35
G80A U108A A141G U143C	1.69
U85A U96A G97A	0.07
G83A U85C U102G	0.04
G82U U119C A129C	1.96
U87C U108A A138G	0.11
G80A U91C A142G	0.62
U81A U85A U104A	0
G80A U87C A140U	0.2
U81G A94C A141G	0.15
U85C A121G A136U	0.22
U85A U108C U119C	0.12
U87C A94U G137U	0.16
U85C U108C U134C	0.21
G86U U104C A107U	0.02
U87C U102C A136G	0
A79U U87A A117G U119C	0.07
G80A U85A G126U	0.14
U81A U130C A140G A141U	1.98
U81C C84U U96A	0.04
U81C U109C A121G A140U	1.31
G80A U104C A136G	2.88
G82A U109A U134G	1.61
U87C G89A U130C	0.05

Variant	self-cleavage
G83A U96C U104C A129G	0
U85C G89U U100C U130C	0
U87C U115A U143C	0.28
U81C G122A G139A	0.76
U81C U87C A121U	1.03
U81C C90A U132C	0.02
U81A A138G A141G	1.04
U81C C128A A129G C146A	0.2
U87C U100C A117U	0.4
U85A A92U U104C	0.12
U85G U115G U119C	0
U85C U102C A140U	0.44
U85C G89A A94G U109C G127A U130C	0.12
U87G G93U U102C A107G C111A	0.08
U85A C99A U119A	0.07
U87C C113U U119A G126A	0.15
U81G U87A G144A	0
U81A U96A A129U A140G	0.06
U87A A124G U134C	0
U87A A117U U132C	0.1
U85C U112C U130C	0.4
U87C A129G A142G U143A	0.3
U85C U115A U130A	0.2
U85C G88A U100C U119A	0.02

Variant	self-cleavage
G82A A92G U102C G125A	0.03
U87C A94G U143C	0
U85C C98U A124G	0
U87C U96C U102A	0.52
U85C A92U U96C	0
U85A A94G U115A	0
A79U U119G A142G	2.06
U85C U132C A136G	0.17
U81G U87A U100A	0.43
U87A A121C A124U	0.02
G80A U115C U119A	2.14
G80U U130C A140C	1.84
U85A A92G U112A	0.05
U85C U104C U143A	0.28
U81C U104A U119A	1.15
G82A U119C G125A A138G A142C	2.52
G80U U104A A136U	1.64
U87C A107U U115C	0
U85A A107U U115A	0.08
U85C A107G A141G	0.16
G88A C90A A94G A140G	0.03
C84U A92G A141G	0.04
U85C U91C U102C A141U	0
U87G G89A U130C U132C	0.09

Variant	self-cleavage
U81A U96C C99A	0.08
U81A U104C A140G	2.82
U81C C101A U115G A129G U143A	1.15
U85A U109A A138G	0
U85C A117C A142G	0.14
A79U U115G A136U	2.18
U87C U115A U134A	0.06
U85G U119C A129G C131A	0
G82A U87C U91G U109A	0.08
U87A G97A A117G	0.08
U87A U96C U132C	0.12
U87A U104C A129G	0
G82A U109C U115C	1.23
U81A A124U A136G	2.5
G80A U115C A124G	1.69
U85C U100C A141G	0.39
G83C U96C G97A U130C U143A	0.03
C84U U91A A121C	0.28
U81A A124U A140G	1.66
U85G U96C U119C	0.38
G88A C120A U134A A138G	0.06
U85A U115A A140G	0.04
A79U U87C A117U U134C	0.13
A79U U102C A136G A140G	0.79

Variant	self-cleavage
C84G U85A U91A A121U	0.01
U87C U96C U132C	0
C84A C113U U134C	0.06
U81C U130C A136U	0.63
U81C A124U G135A	1.88
C84U G89A A124G	0.04
U85C U100C A129U U132A	0.21
U87C U109C A124U	0
U85A A129U U130C	0.16
C84U C133A A142G	0.07
U85C U108C U134A A136G	0.33
U81C G97A A136G	0.21
U85A U100C U104C	0.21
U81A A121C A141G	2.92
U87A U130C U134A A136U	0.03
U81C G88A C146U	0.08
U81A U100A A141G	2.23
U87C U112C U132C	0.06
U81A U108A A138G	1.35
A79U G82A A94G A121G	0.61
G83A A129U A142G	0.76
G82A U100C A138U A142G	2.74
A79U C131U A138G	2.26
U85A C90U A124U	0.1

Variant	self-cleavage
U81C A141G U143C	0.92
U85A U112C U132C	0.15
U85C G114A A138U	0.12
U87C A117G U132C A142G	0.35
U81A U85C G127A	0.18
U85C U100A A138G	0.06
U85C U104C U109C	0
C84G C128U A142G	0.08
U85G U87A U96C	0
U85A U87G G114A U119C	0
C84A A107G A117U	0.14
U81A U91C U130C A140G	1.18
U85A A136G A140U	0.06
U81A U119C A138G	2.63
U81A U96A A117G	0.04
G86A G106U A140G	0.1
A79U U102C G122A	1.49
U85C A121U A129G	0.17
A79U U81C C118U	0.89
U81C U87A U115A	0.1
U81C U85C U119C A136U A142G	0.77
U85C U87C A142G	0.29
U81A U87A A129C A140U	0.04
